Data on 81 molecules can be found in PubChem BioAssay AID1346428 (National Center for Advancing Translational Sciences (NCATS), 2018).

Screen size: about 48,000 compounds; about 1,200 (2.5%) were called active. Another 2% or so got no clear call; they are omitted.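 Rule for the calls: active = activation of at least 60% and not above a set upper limit (about 1 call in 100 departs from these limits); inconclusive = activation of 40% to 60%, or above that upper limit; inactive = activation under 40%.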 Some of the results follow.

Chain of UniProt O75388 (O75388 whole entry, looked up, the tested form may be a part): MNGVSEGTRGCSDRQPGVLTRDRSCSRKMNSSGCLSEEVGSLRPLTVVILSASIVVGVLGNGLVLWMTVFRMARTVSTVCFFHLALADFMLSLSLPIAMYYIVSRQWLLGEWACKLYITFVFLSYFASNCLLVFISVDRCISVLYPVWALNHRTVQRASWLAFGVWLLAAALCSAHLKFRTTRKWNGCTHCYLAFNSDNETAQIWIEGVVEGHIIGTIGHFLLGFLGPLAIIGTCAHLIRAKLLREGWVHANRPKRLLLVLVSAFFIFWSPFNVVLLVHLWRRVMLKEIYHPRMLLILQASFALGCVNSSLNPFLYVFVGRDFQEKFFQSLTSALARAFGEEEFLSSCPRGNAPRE

The test addresses Probable G-protein coupled receptor 32 (Homo sapiens) (UniProt O75388). The test is described as follows: qHTS for Agonists of Human Resolvin D1 Receptor DRV1. Note: 0% is about no effect. The conditions noted are these: CHO-K1 GPR32 beta-arrestin PathHunter luminescence, 90 min; at 76.9 µM; stronger effect = higher value; zero percent set by DMSO-only wells. In short, it runs like this:
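Agonism was scored as beta-arrestin recruitment to ProLink-fused GPR32 in stably transfected CHO-K1 cells, giving a chemiluminescent beta-Gal signal; compounds were incubated 90 min at 37 °C.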
Regarding `COc1cccc(NC(=O)CSC2=Nc3ccccc3C3=NC(CCC(=O)NC4CCCCC4)C(=O)N23)c1` (stereo unspecified), the activation is inactive: -0.0151%.

On to `COc1ccc(OC)c(NC(=O)CCCOc2cc(=O)n(C)c3ccccc23)c1`, for which the activation is inactive: 2.44%.

With `CCn1cc(C(=O)N2CCN(c3ccccc3OC)CC2)c2cc(OC)c(OC)cc2c1=O`, the activation is inactive: 5.29%. The result for `N[C@H]1C(O)O[C@H](CO)[C@@H](O)[C@@H]1O` (stereo partly specified) reads inactive: 14.6%; that for `CN1C2CC(OC(=O)[C@H](CO)c3ccccc3)CC1C1OC12` (stereo partly specified), inactive: -3.64%; that for `CCc1ccc(NC(=O)c2ccc(CNS(=O)(=O)c3ccc4c(c3)C(C)(C)C(=O)N4C)cc2)cc1`, inactive: -5.11%. On to `CCOc1cccc2sc(=NC(=O)c3ccc(S(=O)(=O)N4CCOCC4)cc3)n(C)c12`, for which the activation was inactive: 16.4%. The result for `CCC(Oc1ccccc1)C(=O)Nc1nnc(S(=O)(=O)N2CCCC2)s1` (stereo unspecified) reads inactive: -10.9%.

On to `CCc1ccc(OCC(=O)Nc2c(C(=O)c3ccc(Br)cc3)oc3ccccc23)cc1`, for which the activation is inactive: -11.1%. The result for `CCOC(=O)c1cnc2c(OC)cccc2c1N1CCN(c2ccccc2F)CC1` reads inactive: 26.4%. The result for `COc1ccc(CCNC(=O)CCCCn2c(=O)c3ccccc3n(Cc3cccc(C)c3)c2=O)cc1OC` reads inactive: -30.3%; that for `O=c1oc(Cl)c(Cl)c2ccccc12`, inactive: -6.48%. The result for `COc1ccc(NC(=O)c2oc3ccccc3c2NC(=O)c2cc(=O)c3ccccc3o2)cc1` reads inactive: 3.5%; that for `CCCCN(CCCC)CCn1cnc2c([nH]c3ccc(OC)cc32)c1=O`, inactive: -2.24%; that for `COc1ccc(C(=O)Nc2ccc3c(c2)CCCN3S(=O)(=O)c2ccc(C)cc2)cc1`, inactive: -13.8%. Take `COc1ccc(CNC(=O)c2ccc(-c3nc(CSc4ccccc4)c(C)o3)cc2)cc1`: the activation is inactive: 34.5%. The result for `COc1ccccc1Nc1nn2c(=O)c3ccc(C(=O)NC4CCCCC4)cc3nc2s1` reads inactive: 13.3%. The result for `CCOc1ccc(N(CC(=O)NCc2ccc(C)cc2)S(=O)(=O)c2c(C)[nH]c(=O)[nH]c2=O)cc1` reads inactive: -2.66%. The result for `Brc1ccc(-c2csc(-c3nc(-c4ccc(Br)s4)cs3)n2)cc1` reads inactive: 11.9%; that for `CCOC(=O)N1CCc2c(sc(NCc3ccc(N(C)C)cc3)c2C(=O)Nc2ccccc2OCC)C1`, inactive: 38.2%. Take `CCN(CC)CCNC(=O)Cn1cnc2sc(C)c(S(=O)(=O)N3CCN(c4ccccc4OC)CC3)c2c1=O`: the activation was inactive: 4.59%. The result for `CCc1ccc(NC(=O)c2sc3nc(-c4ccccc4)cn3c2C)cc1` reads inactive: 23.3%. The result for `CCN1CCN(C(c2cccc(OC)c2)c2c(O)cc(C)n(Cc3ccco3)c2=O)CC1` (stereo unspecified) reads inactive: -14.9%; that for `CC(NC(=O)c1ccc(Cn2c(SCc3ccccc3)nc3cccnc32)cc1)c1ccccc1` (stereo unspecified), inactive: 18.7%. The result for `CC(CCc1ccccc1)NC(=O)Cn1ncc2c3ccccc3n(Cc3cccc(Cl)c3)c2c1=O` (stereo unspecified) reads inactive: -0.913%; that for `COc1ccc(CN(C(=O)c2ccc(OCC(C)C)cc2)C2CCS(=O)(=O)C2)cc1` (stereo unspecified), inactive: -27.4%. On to `CCOc1ccc(NC(=O)CSc2oc(-c3ccco3)nc2S(=O)(=O)c2ccc(Cl)cc2)cc1`, for which the activation was inactive: -18.6%.

On to `COc1cccc(C2C=C(c3ccc(C)cc3)Nc3c(C(=O)Nc4ccc(F)cc4)cnn32)c1OC` (stereo unspecified), for which the activation was inactive: -0.872%. As to `O=C(Nc1ccccc1C(F)(F)F)N1Cc2ccccc2Oc2ncccc21`, the activation was inactive: -19.6%. The result for `COc1ccc(NC(=O)CSc2nc(-c3ccccc3)c3ccccc3n2)cc1` reads inactive: -18.1%; that for `CCOc1ccc(-c2n[nH]c3c2C(c2cccs2)N(c2ccc(Br)cc2)C3=O)cc1` (stereo unspecified), inactive: -14.7%; that for `CCOC(=O)c1cc(-c2ccc(OC)cc2)n(CCC(=O)NC2CCC(C)CC2)c1C` (stereo unspecified), inactive: -29.3%. The result for `Cc1cccc(C(=O)NCc2nnc(SCC(=O)Nc3ccccc3F)n2-c2ccccc2)c1` reads inactive: -11.3%; that for `CCc1cccc(-n2nnc(-c3nc(-c4ccc5c(c4)OCO5)no3)c2C)c1`, inactive: -9.33%. Regarding `COc1ccc(N2CCN(C(=O)Nc3ccc(Cl)cc3)CC2)cc1`, the activation was inactive: 19.5%. The result for `CC(=O)N1c2ccc(S(=O)(=O)NCC3CCC(C(=O)Nc4cccc(F)c4)CC3)cc2CC1C` (stereo unspecified) reads active: 64.2%; that for `COc1ccc(S(=O)(=O)N2CCN(C(=O)c3cc(-c4ccc(Br)cc4)n[nH]3)CC2)cc1OC`, inactive: 33.7%; that for `COc1ccc(-n2nc3c(N4CCCC(C(=O)NCc5ccccc5C)C4)nnc(C)c3c2C)cc1` (stereo unspecified), inactive: 12.8%. The result for `O=C(NCCn1cc(SCc2ccc(C(F)(F)F)cc2)c2ccccc21)c1cccs1` reads inactive: 0.635%. For the molecule `Cc1nnc(SCC(=O)NCc2cccc(F)c2)c2nn(-c3ccccc3)c(C)c12`, the activation is inactive: 5.25%.

Consider `COc1ccc2c(c1)c(CC(=O)OC/C=C(\C)CC/C=C(\C)CCC=C(C)C)c(C)n2C(=O)c1ccc(Cl)cc1`, for which the activation was inactive: 12.5%. Take `Cc1cccc(NC(=O)CSc2nc(=O)n(CCN3CCOCC3)c3c2CCC3)c1`: the activation was inactive: -3.58%.

Regarding `CNC(=O)C1CCC(Cn2c(=O)c3sccc3n(CC(=O)Nc3ccc(C)cc3C)c2=O)CC1` (stereo unspecified), the activation is inactive: -11.3%. The result for `Cc1ccc(-n2ncc(C(=O)NCCN3CCc4ccccc4C3)c2C2CCN(C(=O)OC(C)(C)C)CC2)c(C)c1` reads inactive: -2.11%; that for `CN(c1nnc(NC(=O)Nc2ccc(Br)cc2)s1)C1CCCCC1`, inactive: 2.67%; that for `COc1ccccc1CNc1ncnc2onc(-c3ccc(Cl)cc3)c12`, inactive: 29.7%. The result for `COc1cccc(NC(=O)CN2C(=O)COc3ccc(S(=O)(=O)N4CCOCC4)cc32)c1` reads inactive: -18.2%; that for `Cc1ccc(NC(=O)Nc2csc3c2CCCC3)c(C)c1`, inactive: -13.8%; that for `CCC1(O)CC2CN(CCc3c([nH]c4ccccc34)[C@@](C(=O)OC)(c3cc4c(cc3OC)N(C)C3[C@]45CCN4CC=C[C@@](CC)([C@@H](OC(C)=O)[C@]3(O)C(=O)OC)[C@H]45)C2)C1` (stereo partly specified), inactive: -19.5%.

As for `Cc1cc(C(=O)Nc2ccc(Cl)cc2)c2c(C)nn(-c3ccccc3)c2n1`, the activation is inactive: -6.52%. Turning to `CCCS(=O)(=O)NCCc1sc2nc(-c3ccc(Cl)cc3)nn2c1C`, the activation is inactive: 12.9%. For `CCOC(=O)c1c(NC(=O)c2cc(=O)c3c(C)cc(C)cc3o2)sc(C)c1C`, the activation was inactive: 9.87%. With `NC(=O)C1CCN(C(=O)c2ccccc2NC(=O)c2nsc3ccccc23)CC1`, the activation was inactive: -14.4%.

In the case of `COc1ccccc1C(=O)NC1(C(F)(F)F)C(=O)NC(C)=C1C#N` (stereo unspecified), the activation was inactive: -6.01%. The result for `COc1ccccc1N1CCN(C(=O)C2CCN(S(=O)(=O)c3cccs3)CC2)CC1` reads inactive: 25.8%; that for `CCOC(=O)c1cnc2cc(Cl)c(OC)cc2c1Nc1ccc(Br)cc1C`, inactive: 4.41%. For `C#CCOc1c(Br)cc(C2C(C(=O)OC)=C(C)NC3=C2C(=O)c2ccccc23)cc1OCC` (stereo unspecified), the activation was inactive: -29.7%.

Regarding `Cc1ccccc1NC(=O)Cn1nnc(C(=O)NCc2ccco2)c1N`, the activation is inactive: 34.3%.

For `COc1cc(OC)c(NC(=O)c2nn(C)c3c2COc2ccccc2-3)cc1Cl`, the activation was inactive: 1.9%. The result for `O=C(Nc1ccccc1)c1cc2c(-c3ccccc3)nn(-c3ccccc3)c2s1` reads inactive: -5.78%; that for `Cc1ccc(-c2nnc(Nc3cccc(Br)c3)c3ccccc23)cc1S(=O)(=O)N1CCN(C)CC1`, inactive: -4.15%; that for `COc1ccc(Cn2nc3n(c2=O)-c2ccccc2OC3)cc1`, inactive: 15%. The result for `Cc1ccc(C)c(Cn2c(=O)n(CCc3ccccc3)c(=O)c3c(C)c(C)sc32)c1` reads inactive: -1.91%. The result for `CSc1ccc(CCNS(=O)(=O)c2cc(-c3cc(C)no3)ccc2C)cc1` reads inactive: -10.7%; that for `CCOc1ccc(OC(=O)c2sc3ncn(Cc4cccc(F)c4)c(=O)c3c2C)cc1`, inactive: -6.72%. In the case of `O=C(CSc1c2c(nc3ccc(Cl)cc13)CCCC2)N1CCN(c2ccc(Cl)cc2)CC1`, the activation was inactive: -29.8%. The result for `COc1ccc(OC)c(NC(=O)C(Cc2ccccc2)NS(=O)(=O)c2ccc3c(c2)CCC(=O)N3)c1` (stereo unspecified) reads inactive: 7.4%. As for `CCn1cc2nc(SCc3c(F)cccc3Cl)n(CCc3ccccc3)c(=O)c2n1`, the activation was inactive: 16.4%. With `O=C(COCc1cc(-c2ccc3c(c2)OCO3)on1)Nc1cccc(O)c1`, the activation is inactive: -4.75%. The result for `O=C(Nc1ccc(Br)cc1)Nc1nc2c(s1)CCCCCC2` reads inactive: 26.4%; that for `CCN(CC)S(=O)(=O)c1ccc2c(c1)N(CC(=O)Nc1cccc(C(C)=O)c1)C(=O)CO2`, inactive: -34.9%; that for `COc1ccc(Cl)cc1S(=O)(=O)Nc1ccc2c(c1)n(C)c(=O)n2C`, inactive: 18%. As for `COc1ccc(NC(=O)C(=O)Nc2ccc3nc4n(c(=O)c3c2)CCCCC4)c(OC)c1`, the activation is inactive: -7.73%.

Take `Cc1cccc(C(=O)n2nc(-c3ccco3)nc2NCc2ccccc2)c1`: the activation is inactive: -27.9%. The result for `Cc1ncc(CSSCc2cnc(C)c(O)c2CO)c(CO)c1O` reads inactive: -19.7%. For `CCC(=O)N1c2ccccc2CC1C(=O)NCCCN1CCN(c2ccc(F)cc2)CC1` (stereo unspecified), the activation was inactive: -0.211%. As for `CCOc1ccc(NCc2cccn2-c2nnc(N3CCC(C(=O)NCCc4ccc(OCC)c(OCC)c4)CC3)s2)cc1`, the activation was inactive: -32.6%.

For `COCCn1c(C)cc(O)c(C(c2ccc(OC)cc2)N2CCCCC2)c1=O` (stereo unspecified), the activation is inactive: -7.9%. The result for `CC1CN(C(=O)Nc2ccc(C(=O)NCCc3ccc(Cl)cc3)cc2)c2ccccc2S1` (stereo unspecified) reads inactive: -2.71%. The result for `Cc1ccccc1NC(=O)CSCn1nnc2c(=O)[nH]c(Cc3ccc(F)cc3)nc21` reads inactive: 9.01%; that for `CC(=O)Oc1cccc2c1C(=O)c1c(OC(C)=O)cc(C(=O)O)cc1C2=O`, inactive: 7.4%.
